# Laboratory results published in PubChem BioAssay AID485344 (National Center for Advancing Translational Sciences (NCATS), 2010).
# Screen size: about 340,000 compounds; about 6,900 (2%) were called active. No stated cut-off is given here; in the data, active means inhibition above about 30%; inactive means below that, where a call was filed. The entries are a selection whose mix differs from that of the whole data set. Entries without a call were filed so in the source.
# Biological target: D(2) dopamine receptor (Homo sapiens) (UniProt P14416)
# Sequence of UniProt P14416 (P14416 whole entry, looked up): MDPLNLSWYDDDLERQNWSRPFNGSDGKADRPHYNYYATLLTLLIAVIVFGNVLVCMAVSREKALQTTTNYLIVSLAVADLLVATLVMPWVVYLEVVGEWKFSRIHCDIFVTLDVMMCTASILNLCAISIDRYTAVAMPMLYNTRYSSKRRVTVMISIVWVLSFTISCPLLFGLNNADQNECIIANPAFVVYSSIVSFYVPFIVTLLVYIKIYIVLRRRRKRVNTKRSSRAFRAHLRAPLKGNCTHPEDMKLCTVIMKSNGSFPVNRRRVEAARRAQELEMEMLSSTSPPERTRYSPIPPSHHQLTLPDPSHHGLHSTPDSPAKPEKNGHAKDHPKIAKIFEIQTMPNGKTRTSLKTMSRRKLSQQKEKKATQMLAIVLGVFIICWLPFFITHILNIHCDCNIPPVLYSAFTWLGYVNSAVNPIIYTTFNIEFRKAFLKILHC
# Experiment: HTS Assay for Allosteric Antagonists of the Human D2 Dopamine Receptor: Primary Screen for Antagonists; further: 0% is about no effect
# Settings: HEK293 TREx D2 cells, calcium flux, dopamine EC80; at 10 µM; stronger effect = higher value
# In short: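 Read-out: kinetic calcium fluorescence (1 cycle/s) in inducible HEK293 T-REx D2 cells after an EC80 dopamine addition that followed 180 s compound preincubation. Loss of the dopamine response indicates antagonism.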
row,Compound,inhibition
1,Clc1ncc(CN2CCN(c3ccccc3)CC2)s1,active: 83.7%
2,CC1CCCN(Cc2c(O)ccc3c(=O)c(Oc4ccccc4Cl)c(C(F)(F)F)oc23)C1 (stereo not given),-7.54%
3,O=C(NCCCN1CCN(c2ccccc2F)CC1)C1CCN(S(=O)(=O)c2cccs2)CC1,active: 74.7%
4,COc1cccc(N2CCN(C(=O)c3cccc(NC(=O)c4nsc5ccccc45)c3)CC2)c1,12.2%
5,COc1cc(CN(C(=O)c2ccccc2[N+](=O)[O-])c2ccccn2)cc(OC)c1OC,2.85%
6,Cc1ccc(C)c(NC(=O)CSc2nc(=O)n(CCN(C)C)c3c2CCC3)c1,-17.2%
7,Cc1sc2c(c1C)c(=O)n(CCc1ccccc1)c(=O)n2Cc1ccccc1Cl,1.4%
8,N#Cc1ccccc1NC(=O)c1cc2c(=O)n3ccccc3nc2s1,-3.56%
9,CC1CCN(S(=O)(=O)c2ccc3c(c2)N(CC(=O)NCCCN2CCCCC2C)C(=O)CS3)CC1 (stereo not given),-21.8%
10,COc1ccc(CCNC(=O)C2=C(C)C(=O)OC23CCCCC3)c(OC)c1OC,-1.49%
11,CCN(CC)S(=O)(=O)c1ccc2c(c1)nc(CN(C)C(=O)c1cccc(Cl)c1)n2C,-6.1%
12,OC(COc1ccccc1)CN1CCN(c2ncccn2)CC1 (stereo not given),active: 38.7%
13,CCOc1ccc(C(=O)Nc2nnc(SCc3cc(=O)c4cc(C)ccc4[nH]3)s2)cc1,2.4%
14,COc1cccc2sc(N(Cc3cccnc3)C(=O)COc3ccccc3)nc12,4.62%
15,CC1(C(=O)NC(=S)NNC(=O)c2ccncc2)CCCCC1,active: 34.1%
16,Cc1nn(-c2ccccc2)c(OC(=O)c2ccccc2F)c1S(=O)(=O)c1ccccc1,-1.17%
17,COCCCNC(=O)CCn1c(=O)c2ccccc2n(CC(=O)Nc2c(C)cc(C)cc2C)c1=O,-9.66%
18,Cc1ccc(-n2c(=O)c3cccnc3n2CC(=O)Nc2cccc(C)c2C)cc1,5.87%
19,CC(C)c1ccc(OC(=O)c2cc(-c3ccc4c(c3)OCCO4)on2)cc1,14.8%
20,COc1ccc(CCNC(=O)CSc2ncc3c(n2)-c2cc(Cl)ccc2N(Cc2ccccc2)S3(=O)=O)cc1OC,-11.2%

row,Compound,inhibition
1,Cc1ccc(CNC(=O)c2nc(SCc3ccc(C)cc3)ncc2Cl)cc1,-13.2%
2,Cc1ccc(C)c(N2CCN(CC3CCCCC3)CC2)c1,active: 62.2%
3,CC(C)c1ccc(NC(=O)CSC2=Nc3ccccc3C3=NC(CC(=O)NCc4ccc(F)cc4)C(=O)N23)cc1 (stereo not given),19.6%
4,CCc1ccccc1NC(=O)Cn1c(=O)c2cccn2c2ccc(F)cc21,0.457%
5,COc1ccc(CNC(=O)c2ccc3c(c2)N(Cc2cccc(Cl)c2)C(=O)c2ccccc2S3)c(OC)c1,4.43%
6,CCCCn1c2ccc(F)cc2c2nnc(SCCN3CCCCC3)nc21,0.0171%
7,Cc1ccc(OCC(=O)NCC(=O)OCc2cc(=O)n3nc(C)sc3n2)cc1,4.71%
8,CCOC(=O)C1CCN(S(=O)(=O)c2cc(-c3onc(C)c3C)ccc2OC)CC1,-5.48%
9,Cc1ccc(Cl)cc1N1CCN(C(=O)C2CCCN(S(=O)(=O)c3ccc(Br)s3)C2)CC1 (stereo not given),-12.2%
10,COc1ccccc1NC(=O)CCn1cnc2ccccc2c1=O,15.6%
11,Cc1ccc2nc(-c3ccc(Cl)c(NC(=O)c4cccnc4)c3)oc2c1,-1.05%
12,CC(=O)N1CCCc2cc(S(=O)(=O)N3CCCCC3)ccc21,-12.9%
13,CCOc1ccccc1CNC(=O)c1cc2c(=O)n(Cc3ccccc3)ccc2nc1C,-6.21%
14,CCOc1ccc(NC(=O)CSc2nccn2-c2cccc(C)c2C)cc1,1.87%
15,CN(C(=O)c1cc2c(=O)oc3ccccc3c2s1)c1ccc(F)cc1,12%
16,c1ccc(Cc2nnc(SCc3nc(-c4cccs4)no3)n2-c2ccccc2)cc1,-13.6%
17,Cc1c(C)c2cc(Cl)c(O)c(CN(C)C)c2oc1=O,active: 35.2%
18,COc1ccc(C(=O)Nc2cc(C(C)C)c(O)c(S(=O)(=O)c3ccc(OC)cc3)c2C)cc1,-4.93%
19,COc1ccc(S(=O)(=O)c2c(Nc3ccc(F)cc3)sc(C(=O)c3ccc(C)cc3C)c2N)cc1,-15.5%
20,O=c1c2oc3ccccc3c2n(Cc2cccc(F)c2)c(=O)n1Cc1ccco1,0.226%

row,Compound,inhibition
1,COc1cccc(NC(=O)c2sc3nc(C)c(C(=O)Nc4ccc(C)cc4C)c(-c4sccc4C)c3c2N)c1,0.507%
2,COc1ccccc1CNC(=O)C1CCN(S(=O)(=O)c2ccc(N3CCCC3=O)cc2)CC1,active: 36.8%
3,CC(C)c1ccc2oc(-c3cc(NC(=O)c4cccs4)ccc3Cl)nc2c1,-0.392%
4,CCOc1ccccc1CNC(=O)C1CCN(C2=NS(=O)(=O)C(c3ccc(C)c(C)c3)=C2C)CC1,12.5%
5,COc1ccc(OC)c(NC(=O)Cn2cnc3sc(C)c(S(=O)(=O)N4CCN(c5ccccc5OC)CC4)c3c2=O)c1,3.77%
6,COc1ccc(NC(=O)c2ccc3c(=O)n4nc(Nc5cc(C)ccc5C)sc4nc3c2)cc1,11.3%
7,CCCN(C(=O)c1nn(-c2ccc(OC)c(Cl)c2)c(=O)c2c1c1ccccc1n2C)c1ccccc1F,2.06%
8,CCOC(=O)C1CCCN(C(=O)c2ccccc2SCCOC)C1 (stereo not given),active: 30.3%
9,CCOc1ccc(C(=O)NCCc2csc(-c3ccc(C(F)(F)F)cc3)n2)cc1OCC,8.54%
10,COc1ccc(C(=O)N2CCC(c3nc4ccccc4o3)CC2)cc1,2.2%
11,Cc1ccc([C@H]2Nc3ccc(S(=O)(=O)Nc4cccc(Cl)c4C)cc3[C@H]3C=CC[C@H]32)cc1,-9.19%
12,CCC1CCCCN1CC(=O)c1c(C)[nH]c2cc(C)ccc12 (stereo not given),active: 32.9%
13,CCn1cc(CCC(=O)NCc2ccc(F)cc2)c2ccccc21,-19.7%
14,Cc1ccc(Nc2nnc(-c3ccc(C)c(S(=O)(=O)N4CCN(C)CC4)c3)c3ccccc23)c(C)c1,-16.6%
15,Cn1c(C(=O)NCCCN2CCN(c3ccccc3F)CC2)cc2c(=O)n(C)c3ccccc3c21,active: 97.8%
16,O=C(NCCc1cnc[nH]1)Nc1cccc(C(F)(F)F)c1,active: 40.2%
17,CC1=C(C(=O)Nc2cccnc2)C(c2cccc(O)c2)n2nc(SCc3ccccc3)nc2N1 (stereo not given),8.56%
18,Cc1cc(C)c(Cn2c(CCNC(=O)c3ccco3)nc3ccccc32)c(C)c1,-11.2%
19,CCCn1c(=O)n(-c2cc(Cl)c(OC)cc2OC)c(=O)c2c3c(sc21)CN(C(C)=O)CC3,22.2%
20,COc1ccc(NC(=O)Cn2cc(S(=O)(=O)c3ccc(C)cc3)c(=O)c3ccccc32)cc1OC,-28%
